PubChem BioAssay AID2675 (National Center for Advancing Translational Sciences (NCATS), 2010)
About 100 (0.036%) of roughly 280,000 compounds were called active. Inconclusive means that the source gave no clear call. Such entries were picked first, then a sample of the others. The call rests on the fitted dose curve; in most records, active means well fitted inhibition curve with a large enough effect in the signal ratio, with a control signal flat (not every such curve was filed as active); inconclusive means small, poorly fitted or top-dose-only effect, or effect the other way, or a change in a side signal; inactive means no such curve, though single readings can be large or run the other way; the % refers to the signal ratio. A potency beside an inconclusive call is a rough fit, not a confirmed value. A note “side channel” means that the fit belongs to a control or component signal, not to the main read-out.
On the % scale 0 is the no-effect control and ±100 the full control effect; potency means the concentration at half of the fitted maximal effect; tags describe the fitted curve by direction and shape or compound fluorescence and quenching.

Each compound was assayed against Muscleblind-like protein 1 (Homo sapiens) (UniProt Q9NR56) (assay: qHTS Assay for Inhibitors of MBNL1-poly(CUG) RNA binding). Conditions: TR-FRET MBNL1-His/biotin-(CUG)12 binding, 665/545 ratio; activity change, negative = inhibition: at 57.5 µM (top of the series).
UniProt Q9NR56, sequence (Q9NR56 whole entry, looked up): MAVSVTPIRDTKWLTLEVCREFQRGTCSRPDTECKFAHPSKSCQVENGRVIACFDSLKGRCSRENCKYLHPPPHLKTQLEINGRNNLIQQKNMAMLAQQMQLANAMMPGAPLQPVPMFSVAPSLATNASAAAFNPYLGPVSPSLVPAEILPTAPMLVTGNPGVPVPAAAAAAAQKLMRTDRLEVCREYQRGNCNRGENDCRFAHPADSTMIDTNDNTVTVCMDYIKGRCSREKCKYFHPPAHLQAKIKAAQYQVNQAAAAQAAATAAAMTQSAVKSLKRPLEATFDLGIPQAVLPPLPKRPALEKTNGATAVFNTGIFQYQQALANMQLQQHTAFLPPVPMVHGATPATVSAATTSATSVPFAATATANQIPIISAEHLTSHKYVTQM
Summary of the method: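 MBNL1-His + Biotin-(CUG)12, cpd titration 92 nM–58 uM; Tb anti-His Ab 0.055 ng/ul, SA-XL665 5 nM (final); 60 min RT; ratiometric 665/545 nm, Ex 340 nm; normalized to buffer and full-complex controls.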
In the case of `CSc1nc(=O)n2cccc(C)c2n1`, the Potency is reported as inconclusive: 11.2 µM [quencher, side channel, partial curve].
`O=C(O)c1cc(-c2ccc(/C=N/N3C(=O)C4C5C=CC(CC5)C4C3=O)o2)ccc1Cl` (centres undefined) was tested, and the Potency was inconclusive: 12.6 µM [quencher, side channel, partial curve].
`Nc1[nH]n2c(=O)cc(-c3ccccc3)nc2c1N=Nc1ccc(S(N)(=O)=O)cc1` was tested, and the Potency was inconclusive: 7.08 µM [quencher, side channel, partial curve].
In the case of `N#Cc1cc2ccccc2n2nnnc12`, the Potency is reported as inconclusive: 8.91 µM [quencher, partial curve].
In the case of `N#C/C(=C\c1ccc(O)c(O)c1)C(=O)c1ccc(O)c(O)c1`, the Potency is reported as inconclusive: 14.1 µM [quencher, side channel, partial curve].
`CNC(=O)c1ccc(-c2nc(-c3ccccc3)cs2)cc1` was tested, and the Potency was inconclusive: 11.2 µM [quencher, side channel, partial curve].
With `COc1ccc(NC(=O)CN(C)CC(=O)Nc2ccc(Cl)cc2[N+](=O)[O-])cc1` the Potency was inconclusive: 3.98 µM [quencher, full curve].
`NNC(=O)/C(=C/c1cccs1)NC(=O)c1ccccc1Cl` was tested, and the “activity change, negative = inhibition” value was inactive: 12.3%.
In the case of `CCOC(=O)CSc1nc2sc3c(c2c(=O)n1-c1ccc(OC)cc1)CCN(C)C3`, the Potency is reported as inconclusive: 15.8 µM [quencher, side channel, partial curve].
For `CCCN1C=CC(=CC=C(C#N)C#N)C=C1`, the Potency was inconclusive: 20 µM [quencher, side channel, partial curve].
With `CCOC(=O)c1c(/N=C/c2cccc([N+](=O)[O-])c2O)sc2c1CCC2` the “activity change, negative = inhibition” value was inactive: 21.1%.
In the case of `CCOC(=O)C(C)Sc1nc(N)c(NC(=O)c2ccc(OC)c(OC)c2)c(=O)[nH]1` (centres undefined), the Potency is reported as inconclusive: 0.562 µM [quencher, side channel, single point].
For `O=C(N/N=C/C=C/c1ccccc1)c1ccncc1`, the Potency was inconclusive: 20 µM [quencher, side channel, partial curve].
With `COC(=O)c1cc(NS(=O)(=O)c2ccc(C)c3ccccc23)ccc1N1CCOCC1` the Potency was inconclusive: 25.1 µM [quencher, side channel, partial curve].
With `CCCCNc1ccc2c3c(cccc13)C(=O)N(CCCC)C2=O` the “activity change, negative = inhibition” value was inactive: 19.9%.
`CCc1nnc(NC(=O)C2Cc3ccccc3CN2S(=O)(=O)CC)s1` (centres undefined) was tested, and the “activity change, negative = inhibition” value was inactive: 0.198%.
For `COc1ccc(N(C)C(=O)C2CCN(S(=O)(=O)c3cccc4nsnc34)CC2)cc1`, the Potency was inconclusive: 2.51 µM [quencher, side channel, full curve].
`CCOC(=O)CC(=O)CSc1ncnc2c1oc1ccccc12` was tested, and the Potency was inconclusive: 17.8 µM [fluorescent, partial curve].
For `O=C(OCc1cccc([N+](=O)[O-])c1)c1ccncc1`, the Potency was inconclusive: 28.2 µM [quencher, side channel, partial curve].
For `Cn1c(N)c(C(=O)COC(=O)c2cc(-c3ccco3)nc3ccccc23)c(=O)n(Cc2ccccc2)c1=O`, the “activity change, negative = inhibition” value was inactive: 15.2%.
With `NNc1nc(-c2ccccc2)c2cc(Br)ccc2n1` the “activity change, negative = inhibition” value was inactive: 19.8%.
With `O=C(Nc1nnc(-c2ccc3c(c2)CCCC3)o1)c1ccccc1Cl` the “activity change, negative = inhibition” value was inactive: 7.93%.
With `CCCCOc1ccc(C(=O)Nc2ccncc2)cc1` the “activity change, negative = inhibition” value was inactive: 13.3%.
With `CC1CN(S(=O)(=O)c2ccc(C(=O)Nc3sc4c(c3C(N)=O)CCN(C)C4)cc2)CC(C)O1` (centres undefined) the Potency was inconclusive: 7.08 µM [quencher, side channel, single point].
`COc1ccc(NC(=O)CSc2nc(N)c(C#N)cc2C#N)cc1` was tested, and the Potency was inconclusive: 39.8 µM [fluorescent, single point].
`CCOC(=O)c1cn(CC)c2cc(Cl)c([N+](=O)[O-])cc2c1=O` was tested, and the Potency was inconclusive: 20 µM [quencher, side channel, single point].
With `N#CC1=C(N)SC(N)=C(C#N)C1c1ccoc1` the Potency was inconclusive: 17.8 µM [quencher, partial curve].
With `O=C1NN(c2ccccc2)C(=O)/C1=C/c1ccc(-c2cccc(C(=O)O)c2)o1` the Potency was inconclusive: 25.1 µM [quencher, side channel, partial curve].
`CCN1CCc2c(sc(NC(=O)c3cc4ccccc4cc3OC)c2C(N)=O)C1` was tested, and the Potency was inconclusive: 25.1 µM [quencher, side channel, partial curve].
In the case of `CC(=O)c1ccc(OCCOc2ccc([N+](=O)[O-])cc2)cc1`, the Potency is reported as inconclusive: 25.1 µM [quencher, side channel, single point].
`CCN1/C(=C2\C(=O)N(c3ccccc3)N=C2C)C=Cc2cc(C)ccc21` was tested, and the Potency was inconclusive: 20 µM [quencher, side channel, partial curve].
In the case of `CCN(CC)C(=O)COc1ccc(C=O)cc1OC`, the Potency is reported as inconclusive: 1.12 µM [quencher, side channel, full curve].
With `O=C(NCCN1CCOCC1)c1cc(-c2ccc(Cl)s2)nc2ccccc12` the Potency was inconclusive: 39.8 µM [fluorescent, side channel, single point].
`COc1cc(NC(=O)c2cccs2)c(OC)cc1NC(=O)CCC(=O)Nc1cccc2ncccc12` was tested, and the “activity change, negative = inhibition” value was inactive: -1.67%.
With `Cc1c(N2C(=O)c3cccc4cccc(c34)C2=O)cnn1C` the Potency was inconclusive: 12.6 µM [quencher, side channel, partial curve].
For `CCOC(=O)c1cc(-c2ccccc2)sc1NC(=O)C(C)Sc1nnc(N)s1` (centres undefined), the Potency was inconclusive: 39.8 µM [quencher, side channel, single point].
In the case of `COc1ccc(/C(C)=N/NC(=O)OC(C)(C)C)cc1[N+](=O)[O-]`, the Potency is reported as inconclusive: 14.1 µM [quencher, partial curve, poor fit].
In the case of `CN(C)C(=O)Nc1ccccc1`, the “activity change, negative = inhibition” value is reported as inactive: -7.83%.
For `O=C(Nc1cc([N+](=O)[O-])ccc1Cl)c1cccnc1`, the Potency was inconclusive: 25.1 µM [quencher, side channel, partial curve].
`O=[N+]([O-])c1ccc(OCCO)c(P(=O)(c2ccccc2)c2ccccc2)c1` was tested, and the Potency was inconclusive: 8.91 µM [quencher, side channel, partial curve].
For `CCn1c(SCC(=O)N=Nc2c(O)[nH]c3ccccc23)nc2ccccc21`, the Potency was inconclusive: 6.31 µM [quencher, side channel, partial curve].
With `COc1ccc(CN2CCN(S(=O)(=O)c3ccc(NC(C)=O)cc3)CC2)cc1OC` the “activity change, negative = inhibition” value was inactive: -19.9%.
In the case of `COc1ccc(CNc2ncc(-c3cccc([N+](=O)[O-])c3)n2C)c(OC)c1OC`, the Potency is reported as inconclusive: 15.8 µM [quencher, side channel, partial curve].
`CSC1=C(C#N)C(c2ccc3c(c2)OCO3)C2=C(CCCC2=O)N1` (centres undefined) was tested, and the Potency was inconclusive: 31.6 µM [quencher, side channel, single point].
`Cc1csc(NC(=O)c2ccc(-c3ccc(Cl)cc3Cl)o2)n1` was tested, and the Potency was inconclusive: 0.316 µM [quencher, side channel, full curve, poor fit].
With `CC(C)(C)NC(=S)NNC(=O)c1ccccc1Cl` the Potency was inconclusive: 0.126 µM [fluorescent, side channel, full curve].
`COc1ccc(N(C(=O)Cc2cccs2)C(C(=O)NC2CCCCC2)c2cccn2C)cc1OC` (centres undefined) was tested, and the Potency was inconclusive: 39.8 µM [quencher, side channel, single point].
`COc1ccc(CNC(=O)Nc2ccc(OC)cc2)cc1` was tested, and the “activity change, negative = inhibition” value was inactive: -13.4%.
With `CCOC(=O)Nc1c2ccccc2nc2ccccc12` the Potency was inconclusive: 15.8 µM [quencher, side channel, partial curve].
`O=C(CCCN1C(=O)/C(=C/c2ccccc2)SC1=S)Nc1ccc(C(=O)O)c(O)c1` was tested, and the Potency was inconclusive: 25.1 µM [quencher, partial curve].
In the case of `COCCOC(=O)c1c(C)oc2cc(Br)c(OCC(N)=O)cc12`, the Potency is reported as inconclusive: 1.58 µM [fluorescent, side channel, full curve, poor fit].
`O=C(CSCc1ccc([N+](=O)[O-])cc1)NC1CC2CCC1C2` (centres undefined) was tested, and the Potency was inconclusive: 20 µM [quencher, side channel, partial curve].
In the case of `CC(C)(C)NC(=O)CSc1nnc(C2CC2)n1-c1ccccc1`, the “activity change, negative = inhibition” value is reported as inactive: -3.13%.
With `O=C(CSc1cccc2cccnc12)N/N=C/c1cccnc1` the Potency was inconclusive: 28.2 µM [quencher, partial curve].
With `N=c1c(C(=O)NC2CCCCC2)cc2c(=O)n3ccccc3nc2n1Cc1cccnc1` the Potency was inconclusive: 3.16 µM [quencher, side channel, full curve].
In the case of `Cc1cc(C(=O)OCC(=O)c2cccc([N+](=O)[O-])c2)c2ccccc2n1`, the Potency is reported as inconclusive: 22.4 µM [quencher, single point].
For `O=C(Nc1cccc(-c2nc3ncccc3o2)c1)c1cc2ccccc2o1`, the “activity change, negative = inhibition” value was inactive: -15.3%.
In the case of `O=C(NCCC1=CCCCC1)C1CCN(S(=O)(=O)N2CCCC2)CC1`, the “activity change, negative = inhibition” value is reported as inactive: 6.07%.
`NS(=O)(=O)c1ccc(CNC(=O)COc2ccc3c4c(c(=O)oc3c2)CCCC4)cc1` was tested, and the “activity change, negative = inhibition” value was inactive: 1.64%.
In the case of `CCc1nc(C)cc2c1sc1ccccc12`, the “activity change, negative = inhibition” value is reported as inactive: 4.2%.
With `CCCCCCCC(=O)N/N=C/c1cccnc1` the “activity change, negative = inhibition” value was inactive: 2.41%.
In the case of `O=Cc1ccc(N2N=C(c3ccccc3)CC2c2ccccc2)cc1` (centres undefined), the “activity change, negative = inhibition” value is reported as inactive: 12.8%.
With `CC1=N/C(=C\c2ccc([N+](=O)[O-])cc2)C(=O)N1c1ccc(Br)c(C)c1` the Potency was inconclusive: 10 µM [quencher, side channel, partial curve].
`COc1ccc(Br)cc1/C=N/NC(=O)c1ccc2nc[nH]c2c1` was tested, and the Potency was inconclusive: 15.8 µM [quencher, side channel, partial curve].
